This assay deals with Calmodulin (human full-length CaM, Ca2+-loaded) (human, UniProt P0DP23). The assay can be described thus: cross-linking.

B1: p85α cSH2 domain V663K/V667N ([…]) (domain or fragment)
chain: not shown
Consider B1, for which the binding result is recorded as “binds”.

Values taken from publication PMC6454211 (Biochemistry, 2018).
